Results from the supplement of paper PMC10441789.
This is one part of the list. Antibody binding of pooled human sera (four to six donors per pool; dilution not stated) to peptides of the Trypanosoma cruzi antigen TSSA on microarrays. Quantile-normalised fluorescence in arbitrary units, mean of duplicate arrays; higher = more binding. No active / inactive call. The uninfected pools are read here as the healthy donors of the same country. The strongest signals lie near the top of the scale (about 60,000).

What was measured:
Test in all cases: antibody binding signal (normalised fluorescence) (arbitrary fluorescence units); higher = stronger serum antibody binding to peptide
[1] = system: pooled sera of chronic Chagas disease patients, Argentina
Method: (§1)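 Microarray of 15-residue peptides over residues 30-55 of Trypanosoma cruzi TSSAII, each with 1 to 10 substitutions at naturally variable positions, probed with one serum pool per country.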

[2] = system: pooled sera of chronic Chagas disease patients, Bolivia
Method: as §1

[3] = system: pooled sera of chronic Chagas disease patients, Brazil
Method: as §1

[4] = system: pooled sera of chronic Chagas disease patients, Colombia
Method: as §1

[5] = system: pooled sera of chronic Chagas disease patients, Mexico
Method: as §1

[6] = system: pooled sera of chronic Chagas disease patients, USA
Method: as §1

[7] = system: pooled sera of uninfected people, Argentina
Method: as §1

[8] = system: pooled sera of uninfected people, Bolivia
Method: as §1

[9] = system: pooled sera of uninfected people, Brazil
Method: as §1

[10] = system: pooled sera of uninfected people, Colombia
Method: as §1

[11] = system: pooled sera of uninfected people, Mexico
Method: as §1

[12] = system: pooled sera of uninfected people, USA
Method: as §1

Row | Sequence | antibody binding signal [1] | antibody binding signal [2] | antibody binding signal [3] | antibody binding signal [4] | antibody binding signal [5] | antibody binding signal [6] | antibody binding signal [7] | antibody binding signal [8] | antibody binding signal [9] | antibody binding signal [10] | antibody binding signal [11] | antibody binding signal [12]
1 | GTEKKPAAGGAPSQS | 1410 | 221 | 481 | 4010 | 1970 | 1180 | 187 | 796 | 831 | 98 | 334 | 1380
2 | SGTDKKAAAGEAPSP | 342 | 1180 | 9070 | 4870 | 529 | 11800 | 182 | 185 | 206 | 243 | 816 | 168
3 | SGKDKKAAAGGTPSP | 409 | 187 | 224 | 2940 | 794 | 1740 | 116 | 79.2 | 459 | 170 | 77.2 | 113
4 | KDNKTAAGGAPSQSG | 414 | 208 | 293 | 3090 | 247 | 276 | 298 | 140 | 193 | 180 | 76.8 | 120
5 | DNKAATGEAPSPSGA | 26200 | 43200 | 36100 | 119 | 129 | 26800 | 182 | 166 | 212 | 121 | 114 | 130
6 | TENKTAAGETPSQPG | 23800 | 3290 | 30800 | 199 | 220 | 3080 | 202 | 775 | 227 | 253 | 195 | 167
7 | SGTDKKPATGEAPSP | 50600 | 52300 | 47200 | 4590 | 429 | 40300 | 933 | 690 | 242 | 470 | 2560 | 310
8 | TPPSGTEKKAATGGT | 34000 | 5660 | 27000 | 567 | 10400 | 3000 | 1070 | 382 | 1940 | 803 | 133 | 207
9 | PSGKDKKTAAGGAPS | 3390 | 1340 | 2490 | 7550 | 5290 | 4880 | 192 | 289 | 127 | 170 | 154 | 186
10 | TEKKTAAGETPSQPG | 858 | 2300 | 26600 | 501 | 447 | 3800 | 122 | 437 | 400 | 1300 | 272 | 244
11 | KEKKTATGGTPSQSG | 312 | 404 | 199 | 1260 | 202 | 1240 | 234 | 86.8 | 119 | 191 | 126 | 119
12 | GTENKAATGGAPSQS | 35900 | 1780 | 4320 | 1360 | 2360 | 3810 | 315 | 500 | 196 | 226 | 170 | 198
13 | GKDNKAAAGEAPSPS | 963 | 248 | 5560 | 1730 | 1940 | 10800 | 236 | 288 | 95.6 | 165 | 80.2 | 79.5
14 | KPAAGEAPSQSGASS | 770 | 17200 | 20300 | 115 | 201 | 9160 | 277 | 231 | 121 | 126 | 232 | 134
15 | GTDNKAAAGETPSQP | 563 | 3630 | 38800 | 271 | 660 | 1390 | 112 | 674 | 1520 | 143 | 126 | 78.7
16 | SGTDNKAATGGAPSP | 1350 | 412 | 44300 | 1110 | 474 | 1620 | 354 | 631 | 1580 | 227 | 216 | 261
17 | NKAAAGGTPSPPGAS | 305 | 284 | 2040 | 3410 | 269 | 1160 | 628 | 1030 | 1570 | 777 | 202 | 1620
18 | PPSGKENKAATGGTP | 4480 | 684 | 3110 | 1460 | 2490 | 3440 | 3160 | 1610 | 166 | 743 | 161 | 300
19 | PPSGTENKAAAGGAP | 48800 | 41700 | 47400 | 1100 | 7030 | 11000 | 2070 | 982 | 334 | 829 | 268 | 1180
20 | DKKAATGETPSPPGA | 868 | 929 | 15900 | 172 | 336 | 11000 | 519 | 199 | 190 | 473 | 184 | 663
21 | KDNKPATGGAPSPSG | 424 | 1590 | 2410 | 260 | 250 | 1540 | 466 | 801 | 169 | 164 | 156 | 149
22 | GKEKKAAAGETPSPP | 3900 | 290 | 495 | 2270 | 3050 | 3270 | 109 | 88.5 | 106 | 89.2 | 88.3 | 127
23 | KENKTAAGEAPSQPG | 5300 | 12000 | 37800 | 376 | 237 | 7250 | 220 | 178 | 156 | 133 | 149 | 142
24 | STPPSGTDNKTAAGE | 41800 | 41600 | 45100 | 1280 | 17400 | 25000 | 918 | 515 | 777 | 217 | 152 | 175
25 | PPSGKEKKPATGETP | 33200 | 4940 | 14800 | 2080 | 7500 | 15600 | 562 | 1100 | 123 | 410 | 1390 | 340

Row | Sequence | antibody binding signal [1] | antibody binding signal [2] | antibody binding signal [3] | antibody binding signal [4] | antibody binding signal [5] | antibody binding signal [6] | antibody binding signal [7] | antibody binding signal [8] | antibody binding signal [9] | antibody binding signal [10] | antibody binding signal [11] | antibody binding signal [12]
26 | EKKTATGEAPSQSGA | 12500 | 20000 | 17500 | 330 | 769 | 20400 | 271 | 807 | 171 | 93.9 | 274 | 735
27 | KEKKTAAGETPSQSG | 144 | 232 | 191 | 213 | 112 | 740 | 113 | 119 | 89.4 | 195 | 113 | 112
28 | KEKKPAAGGAPSQPG | 201 | 368 | 1570 | 1800 | 166 | 218 | 122 | 96.8 | 170 | 99.8 | 79.2 | 330
29 | KENKAATGETPSPSG | 3690 | 1210 | 16900 | 245 | 173 | 12400 | 175 | 199 | 119 | 192 | 213 | 3180
30 | KDNKPATGEAPSQPG | 45100 | 44500 | 51700 | 330 | 201 | 40300 | 1260 | 737 | 383 | 221 | 318 | 138
31 | GKENKTATGETPSQS | 12000 | 3500 | 18800 | 18300 | 16400 | 19900 | 508 | 266 | 177 | 197 | 279 | 169
32 | GTDNKTATGGTPSPS | 437 | 1120 | 27600 | 726 | 710 | 756 | 245 | 634 | 2090 | 582 | 228 | 184
33 | KEKKAAAGGTPSPPG | 180 | 226 | 133 | 2420 | 135 | 1210 | 111 | 64 | 1570 | 127 | 93 | 100
34 | GTDNKTATGEAPSQP | 18300 | 35400 | 43000 | 311 | 523 | 23400 | 193 | 531 | 1190 | 135 | 151 | 105
35 | KDNKAATGGAPSPSG | 305 | 222 | 408 | 336 | 234 | 1300 | 242 | 792 | 116 | 164 | 80.2 | 83.6
36 | GTENKPAAGGAPSPS | 45200 | 6630 | 7270 | 1870 | 2090 | 1820 | 405 | 1750 | 385 | 257 | 275 | 181
37 | GKDKKTAAGGAPSPP | 193 | 239 | 199 | 2580 | 429 | 526 | 117 | 88.6 | 147 | 163 | 105 | 105
38 | TDKKAATGGAPSQPG | 1830 | 310 | 8840 | 1510 | 3260 | 1040 | 461 | 510 | 143 | 834 | 152 | 179
39 | ENKAAAGETPSQSGA | 244 | 737 | 16200 | 238 | 155 | 2690 | 84 | 222 | 154 | 179 | 152 | 186
40 | GTDKKPATGGTPSQS | 558 | 450 | 2000 | 5610 | 1100 | 1030 | 306 | 528 | 1100 | 199 | 692 | 160
41 | PSGTDKKTAAGGTPS | 1870 | 333 | 1910 | 14700 | 3690 | 2770 | 171 | 466 | 590 | 327 | 513 | 276
42 | KDKKAAAGEAPSQPG | 1970 | 1560 | 27800 | 201 | 211 | 7310 | 107 | 84.2 | 117 | 98.4 | 75 | 94.4
43 | DKKPAAGETPSPSGA | 520 | 166 | 3700 | 169 | 284 | 2160 | 157 | 233 | 190 | 221 | 136 | 519
44 | TPPSGTENKTAAGGA | 44700 | 41800 | 47500 | 441 | 1680 | 17000 | 3440 | 503 | 940 | 536 | 371 | 637
45 | KDNKPATGGTPSPSG | 443 | 241 | 356 | 231 | 400 | 397 | 275 | 513 | 233 | 206 | 182 | 144
46 | SGKENKPAAGEAPSQ | 4990 | 16700 | 31200 | 3820 | 4680 | 18700 | 7590 | 5030 | 181 | 259 | 629 | 158
47 | SGKEKKAATGGTPSP | 2810 | 798 | 1690 | 2540 | 3190 | 4040 | 203 | 113 | 189 | 378 | 74.3 | 139
48 | KENKAATGETPSPPG | 3210 | 810 | 22200 | 264 | 219 | 12700 | 199 | 223 | 136 | 142 | 115 | 2310
49 | DKKAATGGAPSPPGA | 875 | 253 | 429 | 1850 | 1000 | 1440 | 459 | 388 | 118 | 800 | 130 | 145
50 | SGKDNKTATGETPSP | 445 | 929 | 1670 | 1900 | 334 | 6570 | 286 | 291 | 188 | 353 | 161 | 656
